Results published in PubChem BioAssay AID686971 (National Center for Advancing Translational Sciences (NCATS), 2013).
Where “and” joins values, the source holds several entries; their conditions need not be identical. Equal values may be shown once. Among all 360,000 compounds or so, about 7,500 (2.1%) were called active. This list was built around the results that the source calls inconclusive (neither active nor inactive); the mix of calls is not that of the screen. Calls come from the whole dose curve; as a rule, active = well fitted cell-killing curve with a large enough effect; inconclusive = small, poorly fitted or top-dose-only effect, or effect the other way, or another doubt; inactive = no such curve, though single readings can be large or run the other way. Potencies of inconclusive entries are left out as doubtful fits.

Assay: qHTS for induction of synthetic lethality in tumor cells producing 2HG: qHTS for the HT-1080-IDH1KD cell line
Settings: HT-1080 IDH1 knockdown viability, ATP luminescence, 48 h; activity, negative = toxicity: at 46.1 µM (top of the series) unless noted
Excerpt: Unbiased genomic sequencing for 22 glioma genomes found recurrent mutation of IDH1 on chromosome 2q33, a gene encoding the cytosolic isoform of IIDH1 associated with the tri-carboxylic acid cycle (TCA) that catalyzes the oxidative decarboxylation of isocitrate, yielding alpha-ketoglutarate and CO2 via NADP+ to NADPH conversion. Subsequent studies confirmed the recurrent IDH mutations in up to 70% of secondary gliomas and in 10% of AML cases. In addition, the somatic mutation of cancer-associated IDH1 is a point mutation resulting in various amino-acid substituents at Arginine132 (IDH1 R132), a key residue found in the enzyme's active site that when mutated, results in the loss-of-function in metabolizing isocitrate but confers a gain-of-function to produce the oncometabolite 2-hydroxyglutarate (2HG). This in effect defines IDH1 as an oncogene and provides an extraordinary opportunity to discover chemical probes against mutant IDH1 that may translate into much needed new therapies for glioma and AML patients.
This assay aims to perform a synthetic-lethal screen for chemical probes specific for 2HG-producing tumor cells using matched paired cell lines (1) HT-1080-NT fibrosarcoma cell line that overproduces 2HG and (2) HT-1080-IDH1KD cell line which has IDH1 expression knocked-down. Desirable compounds are toxic to the NT fibrosarcoma cell line but not to the IDH1KD cell line. The data in this AID corresponds to the results of the qHTS against the HT-1080 IDH1KD cell line.
[1] Dang L, Jin S, Su SM. IDH mutations in glioma and acute myeloid leukemia. Trends of Mol Med. 2010; 16(9): 387-97.
[2] Dang L et al. Cancer-associated IDH1 mutations produce 2-hydroxyglutarate. Nature. 2010; 465(7300):966.
Molecular Libraries Probe Production Centers Network [MLPCN]
NIH Chemical Genomics Center [NCGC]
Assay Submitter (PI): Lenny Dang Ph.D., Agios Pharmaceuticals
Suspensions of trypsinized HT-1080-IDH1KD cells were dispensed into white, tissue culture-treated, solid 1536-well plates at 5uL/well (750 cells/well final concentration) in RPMI medium supplemented with 5% FBS. Plates were incubated at 37 degrees C for 2 hours, after which 23 nL of compounds or DMSO were delivered to each well using a pin tool. Plates were then incubated at 37 degrees C for an additional 48 hours. CellTiter-Glo viability reagent (Promega) was dispensed into wells (2.5uL/well) and incubated at room temperature for 10 minutes. The plates were measured on a PerkinElmer ViewLux plate reader for luminescent signal (clear filter, 1 sec exp.). DMSO-treated control wells and media-only (no cells) control wells were used to normalize %Activity of identified toxic compounds; DMSO-treated wells corresponded to 0%Activity (100% viability), while media-only controls were used to normalize 100%Activity (0% viability). To minimize variability between cell lines, both HT-1080-NT and HT-1080-IDH1KD lines were dispensed and treated with identical compound series in single batches.
Concentration-response curves were fitted to the signals arising from the resulting luminescence. The concentration-effect curves were then classified based on curve quality (r2), response magnitude and degree of measured activity, and compounds were subsequently categorized based on their curve class.
Potency is the fitted concentration of half-maximal effect; tags give direction and shape of the fitted curve.

Row | Structure (SMILES) | activity, negative = toxicity | Potency
1 | CCCC(C)CC1(CCO)C(=O)NC(=S)NC1=O (configuration not stated) | inactive: 1.61% | 
2 | CCCCC1(CCCC)C(=O)NC(=Nc2cccc(C)c2)NC1=O |  | active: 18.4 µM
3 | COc1ccc(CN2Cc3cc(N4CCCCC4)ccc3-n3nncc3C2)cc1 | inactive: 3.17% | 
4 | Cc1ccc(C[n+]2c(-c3ccc(C)cc3)cc(-c3ccc(C)cc3)cc2-c2ccc(C)cc2)cc1 |  | active: 2.59 µM
5 | CCC(=O)c1c(O)n(C2CCCCCC2)c(=O)[nH]c1=O |  | inconclusive [cytotoxic, single point]
6 | CC(C)CN1C(=S)SC(C)(C)C1n1oc(=O)n(-c2ccc(Cl)cc2)c1=O (configuration not stated) |  | inconclusive [cytotoxic, single point]
7 | COc1ccc(C2=NCc3nnc(C)n3-c3ccc(Cl)cc32)cc1Cl |  | inconclusive [cytotoxic, single point]
8 | CNc1ccc2oc(C[C@H]3O[C@@]4(CC[C@H]3C)O[C@H]([C@H](C)C(=O)c3ccc[nH]3)[C@H](C)C[C@H]4C)nc2c1C(=O)O |  | active: 2.06 µM
9 | O=[N+]([O-])c1ccc(N2CCOCC2)c2c1no[n+]2[O-] |  | active: 5.17 µM
10 | O=C1Nc2cc(C(=O)N3CCC4(CC3)OCCO4)ccc2S/C1=C\c1ccccc1 |  | inconclusive [cytotoxic, single point]
11 | CC12CCC(O)CC1CCC1C2CCC2(C)C(C(=O)CC(O)C(F)(F)F)CCC12 (configuration not stated) |  | inconclusive [cytotoxic, single point]
12 | Cc1cccc(CCNCc2cc3cccc(C)c3[nH]c2=O)c1 |  | inconclusive [cytotoxic, single point]
13 | COc1ccc(OC(=O)N2C/C(=C/c3ccccc3)C(=O)/C(=C\c3ccccc3)C2)cc1 |  | active: 8.2 µM
14 | O=C(Nc1ccc(Oc2ccc(Cl)cc2)c(Cl)c1)c1cc(I)cc(I)c1O |  | inconclusive [cytotoxic, single point]
15 | N#Cc1cc2c(nc1SCC(=O)Nc1ccc(Cl)cc1)C1CCN2CC1 |  | inconclusive [cytotoxic, single point]
16 | CN(C)c1ccc(CN2CC=C(c3ccc(F)cc3)CC2)cc1 |  | inconclusive [cytotoxic, single point]
17 | C/C(=N\Nc1cccc2ccccc12)c1c(O)n(Cc2ccccc2)c(=O)[nH]c1=O | inactive: -8.48% | 
18 | Cc1ccc(/C=C2\C(=O)NC(=S)N(c3ccc(F)cc3)C2=O)s1 |  | inconclusive [cytotoxic, single point]
19 | Cc1cccc(C)c1-n1nnnc1C(c1ccnc2ccccc12)N1CCC2(CC1)C(=O)NCN2c1ccccc1 (configuration not stated) |  | inconclusive [cytotoxic, single point]
20 | CCC1C(c2cc(OC)c(OC)c(OC)c2)c2cc3c(cc2OC1N1CCCC1)OCO3 (configuration not stated) |  | inconclusive [cytotoxic, full curve]
21 | CC[C@@]1(O)C(=O)OCc2c1cc1n(c2=O)Cc2cc3c(N)cccc3nc2-1 |  | active: 1.3 µM
22 | CNC(=O)O/N=C(\N)Cc1csc2ccc(Cl)cc12 |  | active: 20.6 µM
23 | CC1=CC(=C2C(=O)NC(=S)NC2=O)C=C(C(F)(F)F)N1Cc1ccccc1 |  | active: 1.64 µM

Row | Structure (SMILES) | activity, negative = toxicity | Potency
24 | CCc1cc2c(cc1-c1csc(C/C(N)=N/O)n1)C(C)(C)CCC2(C)C |  | inconclusive [cytotoxic, single point]
25 | COC(=O)C1=C(c2ccccc2)C[C@@H]2CC[C@H]1N2C(=O)NCC1CC1 | inactive: 8.18% | 
26 | CNC(=O)c1cccn(Cc2cc(C(F)(F)F)cc(C(F)(F)F)c2)c1=O |  | inconclusive [cytotoxic, single point]
27 | O=C(Nc1ccc(Cl)cc1)Nc1nccs1 |  | active: 7.31 µM
28 | Clc1ccc(Cc2nn3c(Cn4nnc5ccccc54)nnc3s2)cc1 |  | inconclusive [cytotoxic, single point]
29 | COc1ccc(C(=O)C2CCCN(CC3CCCCC3)C2)cc1OC (configuration not stated) | inactive: 7.77% | 
30 | Cc1ccc(CNCCc2ccccc2F)cc1 | inactive: 11.2% | 
31 | O=C1NC(=O)N(c2ccccc2)C(=O)/C1=C/c1ccoc1 | inactive: -0.118% | 
32 | COc1ccc(-c2csc3nc(-c4ccccc4F)oc(=O)c23)cc1OC |  | inconclusive [cytotoxic, single point]
33 | COc1ccc(Cn2c(O)c(/C=N/NC(=O)c3ccccc3O)c(=O)[nH]c2=O)cc1 |  | inconclusive [cytotoxic, single point]
34 | COc1ccc2c(c1)C13CCCC[C@@H]1C(C2)N(C)CC3 (some centres not stated) |  | inconclusive [cytotoxic, single point]
35 | Cn1c(O)c(C2=NNC(c3ccc(Cl)cc3)C2)c(=O)n(C)c1=O (configuration not stated) |  | inconclusive [cytotoxic, single point]
36 | O=c1c2ccccc2nc(CSc2ncnc3nc[nH]c23)n1-c1ccccc1 |  | inconclusive [cytotoxic, single point]
37 | CCOC(=O)[C@]12Cc3cc(C)ccc3[C@H]1N(C1CCCCC1)C(=O)c1ccccc12 |  | active: 3.66 µM
38 | CCOc1cccc(C2NCc3ccccc3-n3cccc32)c1O (configuration not stated) |  | inconclusive [cytotoxic, partial curve]
39 | COC(=O)C1=C(c2ccc(F)cc2F)C[C@@H]2CC[C@H]1N2C(=O)NCc1ccc2c(c1)OCO2 | inactive: -1.39% | 
40 | Cc1ccc(-c2cc(-c3ccc(C)cc3)[n+](C)o2)cc1 |  | inconclusive [cytotoxic, full curve]
41 | CCOC(=O)[C@]12Cc3ccccc3[C@H]1N(C(C)C)C(=O)c1ccccc12 |  | active: 20.6 µM
42 | CCOC(=O)[C@]12Cc3ccccc3[C@H]1N(CCC(=O)OC)C(=O)c1ccccc12 |  | inconclusive [cytotoxic, single point]
43 | C[C@]12CCC3C(CC[C@H]4C[C@@H](O)CC[C@]34C)[C@H]1C=CC2=O (some centres not stated) |  | inconclusive [cytotoxic, single point]
44 | CC(=O)O[C@@H]1/C=C/[C@](C)(O)C[C@@H](C)C/C=C/[C@H]2[C@@H]3O[C@]3(C)[C@@H](C)[C@H]3[C@H](Cc4ccccc4)NC(=O)[C@@]312 |  | inconclusive [cytotoxic, partial curve, poor fit]
45 | Cc1ccc2[nH]c3c(c2c1)CN(C(=O)CN1C[C@H]2C[C@@H](C1)c1cccc(=O)n1C2)CC3 |  | inconclusive [cytotoxic, single point]
46 | CSCCC(c1nnnn1-c1c(C)cccc1C)N1CCC2(CC1)C(=O)NCN2c1ccccc1 (configuration not stated) |  | inconclusive [cytotoxic, single point]

Row | Structure (SMILES) | activity, negative = toxicity | Potency
47 | CCCCCCn1c(=O)c(C(=O)Nc2ncccc2C)c(O)c2ccccc21 |  | inconclusive [cytotoxic, single point]
48 | Nc1c(C(=O)NC2CCCC2)c2nc3ccccc3nc2n1CC1CCCO1 (configuration not stated) |  | inconclusive [cytotoxic, single point]
49 | CCN1/C(=C/C=C/C2=[N+](CC)c3ccccc3C2(C)C)C(C)(C)c2ccccc21 |  | active: 10.3 µM
50 | O=C1NC(=O)N(c2ccccc2F)C(=O)/C1=C/c1ccc(Oc2ccc([N+](=O)[O-])cn2)cc1 | inactive: 17.7% | 
51 | Cc1ccc(C(=O)C2(C)N(O)C(C)C(c3cccs3)=[N+]2[O-])cc1 (configuration not stated) |  | inconclusive [rising, single point]
52 | O=c1c2ccccc2nc(/C=C/c2ccccc2)n1-c1ccc(O)cc1 |  | inconclusive [cytotoxic, partial curve]
53 | CCN(CC)c1ccc(/C=C/[N+](=O)[O-])cc1 |  | active: 16.4 µM
54 | COc1ccc(C2=CC(c3ccc4c(c3)OCO4)c3c(c4ccccc4oc3=O)O2)cc1OC (configuration not stated) |  | inconclusive [cytotoxic, partial curve]
55 | Cc1cc(N(CCCl)CCCl)ccc1C=NNC(=O)Cc1cc(=O)oc2cc(O)ccc12 | inactive: -22.4% | 
56 | CCCCCC(=O)N[C@@H](c1ccccc1)[C@@H](O)C(=O)O[C@H]1C[C@@]2(O)[C@@H](OC(=O)c3ccccc3)C3[C@](C)(C(=O)[C@H](O)C(=C1C)C2(C)C)[C@@H](OC1OCC(O)C(O)C1O)C[C@H]1OC[C@@]31OC(C)=O (some centres not stated) |  | active: 1.84 µM
57 | O=C(c1ccc2c3c(cccc13)CC2)C1CCCN(CC2CC2)C1 (configuration not stated) |  | active: 16.4 µM
58 | Cc1c(N=Nc2c(O)n(Cc3ccccc3)c(=O)[nH]c2=O)c(=O)n(-c2ccccc2)n1C |  | inconclusive [cytotoxic, single point]
59 | CCN1CCN(Cc2cc3c(cc2[N+](=O)[O-])OCO3)CC1 | inactive: 0.886% | 
60 | COc1cc(/C=C/c2ccc3cccc(OC)c3n2)c(OC(C)=O)c([N+](=O)[O-])c1 |  | inconclusive [cytotoxic, single point]
61 | O=C(c1cn(Cc2ccccc2F)c2ncccc12)C(F)(F)F | inactive: -7.15% | 
62 | CCCC12CN3CCN(C1)CC(CCC)(C3)C2=O | inactive: 0.613% | 
63 | CCOP(=O)(OCC)C(NC(=O)Nc1ccc(Cl)c(Cl)c1)c1ccccc1 (configuration not stated) |  | inconclusive [cytotoxic, single point]
64 | NC(=O)c1cn(C2OC(CO)C(O)C2O)c2ncnc(N)c12 (configuration not stated) |  | active: 103 nM and active: 116 nM
65 | O=C(c1ccccc1)C(CN1CCCC1)c1ccccc1 (configuration not stated) |  | active: 13 µM
66 | CN(C)CCOc1ccc(/C(=C(/CCCl)c2ccccc2)c2ccccc2)cc1 |  | inconclusive [rising, single point]
67 | CCCCOC(=O)n1c(=O)oc2ccc(S(=O)(=O)N3CCCCC3)cc21 |  | inconclusive [cytotoxic, single point]
